This test has as its system NCI-H322M lung. The experiment in a line: DTP human tumour cell line panel, 48 h.

SMILES strings stand for the structures.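 Tested at 5 concentrations; 48 h exposure; 96-well plates; endpoints linearly interpolated, else capped at highest concentration. GI50 is the concentration that inhibits growth by half. TGI: concentration producing complete growth inhibition.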

Our source for the GI50 and TGI values is PubChem BioAssay (NCI).

As to `Cn1ccnc1C(=O)/C=C/c1ccc(CNC(=O)c2ccc(S(F)(F)(F)(F)F)cc2)cc1`, the GI50 is 3.22 µM and the TGI was determined as 6.67 µM.
